In the supplement of paper PMC4604168 (melanoma cell lines):
This is one part of the list. Repeats are few or missing, and single values can be far off.

Legend:
Test in all cases: cell count relative to DMSO control; melanoma cells; higher = more viable cells
Conditions in all cases: library dose: standard library concentration; 72 h
G361 = tested on: G361
IPC-298 = tested on: IPC-298
IST-MEL1 = tested on: IST-MEL1
LB2518-MEL = tested on: LB2518-MEL
LOXIMVI = tested on: LOXIMVI
MEL-HO = tested on: MEL-HO
MZ2-MEL = tested on: MZ2-MEL
MeWo = tested on: MeWo
RPMI7951 = tested on: RPMI7951
RVH-421 = tested on: RVH-421
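Further: cells treated in 1,536-well plates, then fixed and DAPI-stained, with nuclei counted from automated high-throughput microscope images.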

Row | Structure (SMILES) | cell count (G361) [%] | cell count (IPC-298) [%] | cell count (IST-MEL1) [%] | cell count (LB2518-MEL) [%] | cell count (LOXIMVI) [%] | cell count (MEL-HO) [%] | cell count (MZ2-MEL) [%] | cell count (MeWo) [%] | cell count (RPMI7951) [%] | cell count (RVH-421) [%]
1 | COc1ccc(C2=N[C@@H](c3ccc(Cl)cc3)[C@@H](c3ccc(Cl)cc3)N2C(=O)N2CCNC(=O)C2)c(OC(C)C)c1 [Nutlin-3] + O=C(Nc1cccc(Cl)c1)Nc1ncc(CCNc2ncnc3ccsc23)s1 [SNS314] (first compound 0.5 µM, partner dose 0.004 µM) | 63.3 | 101 | 56.2 | 67.3 | 85 | 81 | 85.8 | 78.8 | 90.8 | 63.5
2 | Cc1cc(Nc2cc(N3CCN(C)CC3)nc(/C=C/c3ccccc3)n2)n[nH]1 + O=C1NC(=O)/C(=C/c2ccc(-c3ccc(F)cc3O)o2)S1 [AS252424] (first compound 0.2 µM, partner dose 5 µM) | 90.9 | 107 | 99 | 97.7 | 76.3 | 105 | 108 | 78.2 | 93.1 | 103
3 | Cc1cc(Nc2cc(N3CCN(C)CC3)nc(/C=C/c3ccccc3)n2)n[nH]1 + O=C(O)c1ccc2c(c1)nc(Nc1cccc(Cl)c1)c1ccncc12 [CX4945] (first compound 0.2 µM, partner dose 2 µM) | 72.3 | 71.6 | 77.8 | 66.4 | 39.7 | 58.4 | 77.1 | 90.5 | 50.2 | 70.3
4 | Cn1c(=O)n(-c2ccc(C(C)(C)C#N)cc2)c2c3cc(-c4cnc5ccccc5c4)ccc3ncc21 + C=C(c1ccc(C(=O)O)cc1)c1cc2c(cc1C)C(C)(C)CCC2(C)C [Bexarotene] (first compound 0.02 µM, partner dose 10 µM) | 52.4 | 68.8 | 85.4 | 77.9 | 157 | 68.1 | 77.1 | 72.2 | 69.4 | 66.3
5 | CC(C)C[C@H](NC(=O)[C@H](Cc1ccccc1)NC(=O)c1cnccn1)B(O)O [Bortezomib] + NC(=O)Nc1cc(-c2cccc(F)c2)sc1C(=O)N[C@H]1CCCNC1 [AZD7762] (first compound 0.005 µM, partner dose 0.1 µM) | 0.907 | 11.9 | 11.2 | 4.25 | 6.41 | 32.1 | 4.85 | 12.1 | 3.66 | 7.16
6 | COc1ccc(C2=N[C@@H](c3ccc(Cl)cc3)[C@@H](c3ccc(Cl)cc3)N2C(=O)N2CCNC(=O)C2)c(OC(C)C)c1 [Nutlin-3] + CCN(CC)CCCCNc1ncc2cc(-c3cc(OC)cc(OC)c3)c(NC(=O)NC(C)(C)C)nc2n1 [PD173074] (first compound 0.5 µM, partner dose 0.5 µM) | 74.9 | 94.2 | 102 | 62.7 | 71.6 | 88.3 | 111 | 87.8 | 97.4 | 80.8
7 | COc1ccc(C2=N[C@@H](c3ccc(Cl)cc3)[C@@H](c3ccc(Cl)cc3)N2C(=O)N2CCNC(=O)C2)c(OC(C)C)c1 [Nutlin-3] + CC(C)C[C@H](NC(=O)[C@H](Cc1ccccc1)NC(=O)c1cnccn1)B(O)O [Bortezomib] (first compound 0.5 µM, partner dose 0.005 µM) | 2.26 | 14.3 | 22.7 | 1.55 | 16.5 | 53.9 | 3.73 | 15.9 | 7.15 | 4.08
8 | CC(C)C[C@H](NC(=O)[C@H](Cc1ccccc1)NC(=O)c1cnccn1)B(O)O [Bortezomib] + N#Cc1c(O)c2c(-c3ccc(-c4ccccc4O)cc3)csc2[nH]c1=O [A769662] (first compound 0.005 µM, partner dose 10 µM) | 1.09 | 7.76 | 12.6 | 2.49 | 21.2 | 26.7 | 7.18 | 9.58 | 5.14 | 8.2
9 | Cc1cn(-c2cc(NC(=O)c3ccc(C)c(Nc4nccc(-c5cccnc5)n4)c3)cc(C(F)(F)F)c2)cn1 [nilotinib] + Cc1cc(Nc2cc(N3CCN(C)CC3)nc(/C=C/c3ccccc3)n2)n[nH]1 [ENMD2076] (first compound 1 µM, partner dose 0.2 µM) | 96.2 | 100 | 86.4 | 78.7 | 138 | 98 | 107 | 101 | 68 | 96
10 | Cc1cc(Nc2cc(N3CCN(C)CC3)nc(/C=C/c3ccccc3)n2)n[nH]1 + O=S(=O)(c1ccccc1)N(CC(F)(F)F)c1ccc(C(O)(C(F)(F)F)C(F)(F)F)cc1 [T0901317] (first compound 0.2 µM, partner dose 7 µM) | 70.5 | 80.8 | 104 | 69.2 | 88.3 | 79.8 | 102 | 66.5 | 85.1 | 79.2
11 | Cn1c(=O)n(-c2ccc(C(C)(C)C#N)cc2)c2c3cc(-c4cnc5ccccc5c4)ccc3ncc21 + NCC(=O)Nc1ccc(-n2nc(C(F)(F)F)cc2-c2ccc3c(ccc4ccccc43)c2)cc1 [OSU03012] (first compound 0.02 µM, partner dose 5 µM) | 54 | 78.7 | 81.2 | 82.1 | 74.3 | 70.5 | 76.7 | 61.4 | 72.7 | 77.3
12 | CC(C)C[C@H](NC(=O)[C@H](Cc1ccccc1)NC(=O)c1cnccn1)B(O)O [Bortezomib] + COc1ccc(COc2ccc(Cc3cnc(N)nc3N)cc2OC)cc1 [GW2580] (first compound 0.005 µM, partner dose 5 µM) | 1.29 | 21.7 | 11.9 | 4.28 | 25.5 | 35 | 3.6 | 10.5 | 7.84 | 160
13 | Cn1c(=O)n(-c2ccc(C(C)(C)C#N)cc2)c2c3cc(-c4cnc5ccccc5c4)ccc3ncc21 + Nc1cccc2c1CN(C1CCC(=O)NC1=O)C2=O [lenalidomide] (first compound 0.02 µM, partner dose 5 µM) | 61 | 74.9 | 77.2 | 85.2 | 62 | 84.6 | 87.3 | 67.5 | 67.7 | 78.3
14 | Cn1c(=O)n(-c2ccc(C(C)(C)C#N)cc2)c2c3cc(-c4cnc5ccccc5c4)ccc3ncc21 + O=C(Nc1cccc(Cl)c1)Nc1ncc(CCNc2ncnc3ccsc23)s1 [SNS314] (first compound 0.02 µM, partner dose 0.004 µM) | 41.6 | 75.6 | 51.7 | 68.7 | 78.2 | 65.7 | 70.1 | 61 | 87 | 73
15 | Cc1cn(-c2cc(NC(=O)c3ccc(C)c(Nc4nccc(-c5cccnc5)n4)c3)cc(C(F)(F)F)c2)cn1 [nilotinib] + O=C(CCCCCCC(=O)Nc1ccccc1)NO [vorinostat] (first compound 1 µM, partner dose 0.4 µM) | 66.4 | 103 | 107 | 82.9 | 93 | 93.1 | 106 | 81 | 69.7 | 88.8
16 | COc1ccc(C2=N[C@@H](c3ccc(Cl)cc3)[C@@H](c3ccc(Cl)cc3)N2C(=O)N2CCNC(=O)C2)c(OC(C)C)c1 [Nutlin-3] + COc1cc(Nc2ncc(F)c(Nc3ccc4c(n3)NC(=O)C(C)(C)O4)n2)cc(OC)c1OC [Tamatinib] (first compound 0.5 µM, partner dose 2 µM) | 62.1 | 79.3 | 71.8 | 54.5 | 17.2 | 83.4 | 88.2 | 65.2 | 57.7 | 62.6
17 | Cn1c(=O)n(-c2ccc(C(C)(C)C#N)cc2)c2c3cc(-c4cnc5ccccc5c4)ccc3ncc21 + Cc1nc(Nc2ncc(C(=O)Nc3c(C)cccc3Cl)s2)cc(N2CCN(CCO)CC2)n1 [dasatanib] (first compound 0.02 µM, partner dose 0.02 µM) | 72.4 | 87.1 | 58.3 | 81 | 19 | 60.7 | 51.7 | 59.5 | 35.2 | 78.5
18 | Cc1cc(Nc2cc(N3CCN(C)CC3)nc(/C=C/c3ccccc3)n2)n[nH]1 + Cn1cncc1[C@@](N)(c1ccc(Cl)cc1)c1ccc2c(c1)c(-c1cccc(Cl)c1)cc(=O)n2C [tipifarnib] (first compound 0.2 µM, partner dose 0.05 µM) | 59.2 | 86.6 | 71.7 | 55.1 | 63.1 | 82.9 | 79.5 | 76.7 | 81.3 | 75.1
19 | Cc1cn(-c2cc(NC(=O)c3ccc(C)c(Nc4nccc(-c5cccnc5)n4)c3)cc(C(F)(F)F)c2)cn1 [nilotinib] + Cc1cc([N+](=O)[O-])ccc1NS(=O)(=O)c1cc(Cl)ccc1Cl [FH535] (first compound 1 µM, partner dose 5 µM) | 54.2 | 69.4 | 58.1 | 96.8 | 89.6 | 58.9 | 88.4 | 96.7 | 90 | 96.6
20 | Cn1c(=O)n(-c2ccc(C(C)(C)C#N)cc2)c2c3cc(-c4cnc5ccccc5c4)ccc3ncc21 + CN1CCN(c2ccc3nc(-c4c(N)c5c(F)cccc5[nH]c4=O)[nH]c3c2)CC1 [Dovitinib] (first compound 0.02 µM, partner dose 0.5 µM) | 54.6 | 58.6 | 68.7 | 68 | 98.7 | 55.1 | 37.5 | 73.7 | 81.5 | 80.3
